Test results as given in PMC10668032.
Some of the results follow. At the low end of the ranking the order means little.

Biological target: SIX1 homeodomain (reference allele) (UniProt Q15475)
Assay: universal protein binding microarray
Conditions: Universal all-10-mer PBM (8x60K, AMADID 030236), 300 nM GST-tagged protein, Alexa Fluor 488 anti-GST; buffer, salt, pH and temperature not stated; high values mean tight binding; most listed sequences are background and not binding sites; double strand, one strand shown

Sequence | binding signal
CTTCTTCC | -0.204 E-score
GTTTTAGA | -0.173 E-score
TATGATGA | 0.102 E-score
ATCGGAAG | 0.0993 E-score
ACGGTAAG | -0.0407 E-score
TCCGAAAA | -0.0299 E-score
ATAGTGGA | 0.133 E-score
ACAAACGG | -0.0492 E-score
CCGTGCAG | 0.0226 E-score
AAGTCTAA | -0.124 E-score
CCCCTTTA | -0.0225 E-score
CCACGCCC | 0.0158 E-score
CAGATCAC | 0.367 E-score
CCTATTCC | -0.0875 E-score
CCTGATAA | 0.0382 E-score
ACAAAGCA | -0.0493 E-score
CACGCGTC | 0.0696 E-score
TAGTGTAA | 0.0727 E-score
GCTAGTAC | -0.141 E-score
TATGGTCA | 0.0241 E-score
AGGAAACT | -0.175 E-score
GGCCCCAC | -0.265 E-score
GATCATCC | 0.41 E-score
AGAGTCCT | -0.175 E-score
CTCTAGAC | 0.126 E-score

Sequence | binding signal
GGCAGCCC | -0.024 E-score
ATGGATGC | -0.0951 E-score
AAGTGGGT | -0.0364 E-score
ATCTGGAA | 0.112 E-score
ACATGAAC | -0.133 E-score
TTGATAAA | -0.143 E-score
TAGAGGGA | 0.0699 E-score
AGAGAATC | 0.0208 E-score
GATACCAC | 0.462 E-score
GAGTTGTA | -0.0518 E-score
AGTATTGA | 0.193 E-score
AAACAGTA | -0.0174 E-score
CTTGTGTA | -0.075 E-score
GCCATAGC | -0.117 E-score
ACTCGAAG | -0.104 E-score
GAAAGGGC | -0.291 E-score
AGCCCAAG | -0.276 E-score
ACTTACAA | -0.0971 E-score
AGGGTGTC | 0.435 E-score
CCTTAATA | 0.103 E-score
AGGCAGGG | 0.0143 E-score
AACGACTT | -0.41 E-score
AATTAGAA | -0.214 E-score
ACTGATCC | 0.398 E-score
CATACATA | 0.00813 E-score

Sequence | binding signal
ATGATGCA | -0.00266 E-score
CTCGGACA | -0.07 E-score
AATGCGAC | 0.0221 E-score
ATACTTAC | 0.218 E-score
TCAAGTCA | -0.185 E-score
CGTAGTGA | 0.182 E-score
AACGGCCA | -0.0166 E-score
ACCGTGAC | -0.0326 E-score
GTTAAGCA | -0.0994 E-score
AACCTACG | -0.24 E-score
GCTTGGAA | -0.301 E-score
AAGTGCTC | -0.211 E-score
GGACGCAA | -0.127 E-score
CGTCTGAA | -0.0951 E-score
AAATTCAG | -0.189 E-score
CTTGGTGA | 0.0931 E-score
ATTGTCAC | -0.0222 E-score
GCTACCGA | -0.162 E-score
CAATCGCC | -0.221 E-score
AATTGGAA | -0.23 E-score
AAGATCAA | 0.201 E-score
CTCAAAAG | -0.0897 E-score
GACGCTGA | -0.211 E-score
ATACCTCC | 0.403 E-score
ACATGATC | 0.279 E-score

Sequence | binding signal
TGGCCTAA | -0.145 E-score
GGCGGCGA | -0.142 E-score
CGCGACTA | 0.0605 E-score
AATCGCGT | -0.00681 E-score
CTCGCGGC | -0.106 E-score
AGGATGCC | 0.0353 E-score
ATCTGCAT | 0.222 E-score
AATCTGGT | 0.133 E-score
GCTCGGTA | 0.0872 E-score
ACGGCTTG | -0.14 E-score
CTGCGATA | 0.342 E-score
AGTTGCTG | -0.0685 E-score
TAAGGTCA | -0.287 E-score
ATCCTCAA | 0.216 E-score
ACTAGACA | 0.0677 E-score
GTGCCGGA | 0.12 E-score
CGGAGACA | 0.0527 E-score
ACGTGCAG | -0.103 E-score
AGACTATC | 0.239 E-score
AACCCTAG | -0.147 E-score
GATGGAAA | -0.193 E-score
ATGGGTGA | 0.139 E-score
ATAGAGAG | -0.0711 E-score
CTTGCTAA | -0.296 E-score
CAGGCTCA | 0.155 E-score

Sequence | binding signal
CCTCCGAC | -0.0789 E-score
TGTGTGAA | -0.127 E-score
GTTTAGAA | -0.0372 E-score
AAATGTCC | -0.284 E-score
TAGACTGA | -0.0843 E-score
ACCCCGTG | 0.118 E-score
ACGAATGG | -0.217 E-score
CTTGCAGC | -0.289 E-score
CGCTTCGC | -0.357 E-score
AGCATATA | 0.239 E-score
CGAACTCA | -0.278 E-score
CCGAAGCC | -0.181 E-score
AGGAGACG | 0.134 E-score
GCTAGACC | -0.134 E-score
TAAGACCA | -0.229 E-score
CGAGACAG | 0.102 E-score
AAGGGAGC | -0.0418 E-score
AATGGGGG | -0.159 E-score
GTCCACGA | -0.275 E-score
CCAGATTA | 0.252 E-score
CCTCCTTA | 0.0197 E-score
ATAATAAG | -0.00046 E-score
AAACCCGA | 0.165 E-score
GCAAACCC | 0.0308 E-score
CTCTTATA | 0.111 E-score

Sequence | binding signal
CGGTTCGA | 0.0543 E-score
CCTGTTTC | -0.308 E-score
CGTTATGA | 0.0286 E-score
CCACAACG | -0.184 E-score
ACGAAGCG | -0.178 E-score
GAACCTAA | -0.112 E-score
GCGTAGCC | -0.0945 E-score
AGGCTACG | -0.125 E-score
CATCCACA | 0.114 E-score
CACATCAG | -0.0466 E-score
CATCCCGG | 0.12 E-score
CAGCCGAA | -0.275 E-score
ATAAACCG | 0.146 E-score
GCCTGATA | 0.321 E-score
AGGCAAAT | -0.0847 E-score
CGGATGCC | 0.214 E-score
AATGGTGA | -0.0708 E-score
GGTGCAAA | -0.0159 E-score
AGGATACC | 0.457 E-score
ATCGTCAC | 0.279 E-score
CCAACCCG | -0.0882 E-score
CACTATCC | 0.295 E-score
AAATTCGT | 0.0418 E-score
GCCTTAGA | 0.019 E-score
TCTGACAA | -0.126 E-score

Sequence | binding signal
ACCTCGGC | -0.17 E-score
TGGAAACA | -0.253 E-score
CCAAAAAA | -0.0793 E-score
ATTTAGTA | 0.0206 E-score
CAGTTCAA | -0.0212 E-score
ACCTCGGG | -0.0956 E-score
AGCTGTTA | -0.213 E-score
AAACCTAT | 0.0286 E-score
CAACGCAC | -0.0235 E-score
AGATTCAA | -0.134 E-score
AATCGGCT | 0.0832 E-score
ACGTCTTC | 0.0167 E-score
GAAAAATA | -0.0297 E-score
AGGAGTGA | -0.0128 E-score
AAGTACAG | -0.189 E-score
CTATATTC | 0.0556 E-score
CAGCCCAC | -0.25 E-score
AAAACAAA | -0.235 E-score
GAGCTACA | -0.126 E-score
CAGGAGGG | 0.0468 E-score
CTATTCTC | -0.00332 E-score
CCATGGCA | -0.127 E-score
ACGATGCT | -0.0228 E-score
GGTTGACA | -0.192 E-score
CCATACTC | 0.146 E-score

Sequence | binding signal
TGTAGTAA | -0.0485 E-score
CCCACCTA | 0.0935 E-score
ATCACTTG | 0.29 E-score
AGCCACCA | -0.0935 E-score
CCTGGAGC | -0.137 E-score
CGAATTCA | -0.00502 E-score
CCTAGCCC | -0.103 E-score
TAGGAGAA | -0.0721 E-score
AGCTTTCG | -0.239 E-score
GTTTGCGA | -0.04 E-score
ACAAATGC | -0.0485 E-score
ATGATTAG | -0.0616 E-score
ACCCGGGA | 0.311 E-score
AGGGTTTA | 0.0547 E-score
CAATAGAG | -0.128 E-score
ACTTCTTA | -0.0814 E-score
CCCCGAAG | 0.128 E-score
AGCCGTCA | -0.0998 E-score
AATCCCGT | 0.127 E-score
CAATGCAG | 0.144 E-score
GCACATAC | -0.013 E-score
TACTTTAA | -0.0232 E-score
GAAGTTTA | -0.149 E-score
AACGCGAC | -0.265 E-score
GGTTACGA | -0.0664 E-score

Sequence | binding signal
AATCAACA | 0.0609 E-score
CACGTCGG | 0.0775 E-score
CCGTTACA | -0.0616 E-score
CTTTCTGC | -0.262 E-score
AATTGCCG | -0.241 E-score
CGAACGAC | -0.227 E-score
AGAGTGTA | 0.223 E-score
GGTGTTAA | 0.301 E-score
GCGTGCCA | -0.176 E-score
AACTCTGC | -0.224 E-score
AGGACACG | 0.0726 E-score
GTAAAGAC | -0.177 E-score
CCCCCGCA | -0.0974 E-score
ACGATTAA | 0.152 E-score
ACCCGGCC | 0.0806 E-score
CCACCATC | -0.0492 E-score
ATGCCTTC | -0.0169 E-score
TACGAACA | -0.0254 E-score
CGGGCGGA | 0.0544 E-score
